From PubChem BioAssay AID1159614 (National Center for Advancing Translational Sciences (NCATS), 2016)
Screen size: about 45,000 compounds; about 65 (0.1%) were called active. Calls come from the whole dose curve; as a rule, active = well fitted activation curve with a large enough effect; inconclusive = small, poorly fitted or top-dose-only effect; inactive = no such curve, though single readings can be large or run the other way. The list shows a part of the results.
Note: 0% is about no effect; nearly all actives have a fitted effect of over 65% in size.

The molecules below were run against Galactocerebrosidase (Homo sapiens) (UniProt P54803) (assay: A Novel Cell-Based Assay to Identify Small Molecules for B -Galactocerebrosidase). Conditions: 145M-Twi-hGALC-G270D cells (Twitcher mouse brain line with human GALC G270D), HMU-beta-Gal fluorescence, 48 h; series mostly up to 57.5 µM; activation: at the top concentration.
UniProt P54803, sequence (P54803 whole entry, looked up): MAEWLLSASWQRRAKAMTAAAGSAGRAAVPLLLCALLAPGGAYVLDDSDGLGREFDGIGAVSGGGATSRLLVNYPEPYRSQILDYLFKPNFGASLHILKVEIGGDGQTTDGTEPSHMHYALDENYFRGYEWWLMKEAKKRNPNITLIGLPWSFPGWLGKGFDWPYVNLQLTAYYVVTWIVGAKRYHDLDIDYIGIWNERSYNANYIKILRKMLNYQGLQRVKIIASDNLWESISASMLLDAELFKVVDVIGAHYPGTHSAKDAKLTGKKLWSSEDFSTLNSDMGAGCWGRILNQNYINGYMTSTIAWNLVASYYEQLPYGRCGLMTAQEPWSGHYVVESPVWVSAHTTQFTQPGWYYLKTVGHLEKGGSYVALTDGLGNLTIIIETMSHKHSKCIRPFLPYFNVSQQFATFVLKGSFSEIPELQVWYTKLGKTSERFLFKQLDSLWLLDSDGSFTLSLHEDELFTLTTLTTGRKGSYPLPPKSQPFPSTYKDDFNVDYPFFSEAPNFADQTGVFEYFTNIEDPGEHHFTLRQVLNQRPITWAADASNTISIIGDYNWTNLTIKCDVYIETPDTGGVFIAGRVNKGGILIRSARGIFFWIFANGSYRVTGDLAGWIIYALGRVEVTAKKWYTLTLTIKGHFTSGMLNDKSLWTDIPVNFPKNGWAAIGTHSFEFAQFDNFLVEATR
Outline: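 Mutant human GALC (G270D), stably expressed in a Twitcher mouse brain cell line lacking endogenous GALC, is measured in live-treated cells via 6-hexadecanoylamino-4-methylumbelliferyl-β-galactoside hydrolysis (0.1 mM final, pH 5.2) with fluorescent detection.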
In the case of `Cc1cc(C)cc(NC(=O)N2CCC(CN3CCc4ccccc4C3)CC2)c1`, the “activation” value is reported as inactive: -10.5%. In the case of `CCC(=O)N1CCc2cc(CNS(=O)(=O)c3ccc(Br)s3)ccc21`, the “activation” value is reported as inactive: -3.12%. For `CCc1nc2ccc(C(=O)NCc3ccc(SC)cc3)cc2nc1CC`, the “activation” value was inactive: -12.7%. In the case of `OCCN1CCN(C(c2ccc(Cl)cc2Cl)c2sc3nc(-c4ccco4)nn3c2O)CC1` (centres undefined), the “activation” value is reported as inactive: -6.23%. In the case of `Clc1ccccc1-c1nnc(-c2ccccc2CNc2ccc(Br)cc2)o1`, the “activation” value is reported as inactive: -18.6%. With `CCOc1ccc(-n2c(SCC(=O)Nc3ccc4c(c3)OCCO4)nc3c([nH]c4ccccc43)c2=O)cc1` the “activation” value was inactive: -12.3%. In the case of `CCN(C(=O)Cn1c(=O)nc(-c2ccccc2)c2cc(Cl)ccc21)c1cccc(C)c1`, the “activation” value is reported as inactive: -16.3%. For `CCOc1ccccc1CNC(=O)c1cnc2sc(N3CCOCC3)nn2c1=O`, the “activation” value was inactive: -7.23%. `Cc1cncn1CCc1nc2c3ccccc3nc(SCC(=O)Nc3ccc(F)cc3)n2n1` was tested, and the “activation” value was inactive: -12.9%. In the case of `O=C(N/N=C/c1ccc([N+](=O)[O-])o1)c1ccc(O)cc1`, the “activation” value is reported as inactive: -15.9%. With `CCOc1ccc(CCNC(=O)Cn2ncc3c([nH]c4ccccc43)c2=O)cc1OCC` the “activation” value was inactive: 6.99%. With `CCc1cccc(NC(=O)C2CCC(CNS(=O)(=O)c3ccc4c(c3)CCCC(=O)N4)CC2)c1` (centres undefined) the “activation” value was inactive: -9.11%. With `Cc1ccc(Cl)cc1N1CCN(C(=O)c2ccc3c(c2)N(Cc2ccccc2F)C(=O)c2ccccc2S3=O)CC1` (centres undefined) the “activation” value was inactive: -7.69%. `Cc1ccc(CNC(=O)c2sc3nc(-c4ccccc4)cn3c2C)cc1` was tested, and the “activation” value was inactive: -13.7%. `O=C(CCS(=O)(=O)c1cc(Br)cc2c1N(C(=O)C1CC1)CC2)Nc1ccc(F)cc1` was tested, and the “activation” value was inactive: -11.3%. In the case of `CCc1cccc(NC(=O)C(NS(=O)(=O)c2ccc3nc(C)sc3c2)C(C)C)c1` (centres undefined), the “activation” value is reported as inactive: -17.7%. In the case of `COc1ccc(-c2cc(OC(=O)c3ccccc3)c3c(C)oc(C)c3c(=O)c2)cc1OC`, the “activation” value is reported as inactive: -11.3%. In the case of `CC(C)c1ccc2c(c1)NC(c1ccncc1)=NC(c1cccs1)=N2`, the “activation” value is reported as inactive: -14.9%. For `COc1cccc(NC(CNS(=O)(=O)c2ccc(Cl)cc2)c2ccccc2)c1` (centres undefined), the “activation” value was inactive: -13.7%. `C#CCSc1nc(-c2ccccc2)c2cc(Cl)ccc2n1` was tested, and the “activation” value was inactive: -9.95%. `CCOc1ccccc1NC(=O)CCc1c(C)nc2c(c(C)nn2-c2ccccc2)c1C` was tested, and the “activation” value was inactive: -19.4%. With `Cn1nnc2c(NCc3ccccc3)ncnc21` the “activation” value was inactive: -2.43%. With `Cc1cc(C)cc(-n2c(C)nc3cc(C(=O)NCc4ccc(F)cc4)ccc32)c1` the “activation” value was inactive: 4.38%. `O=C(NCc1ccc(F)cc1)c1ccc(Cn2c(SCc3ccc(F)cc3)nc3cccnc32)cc1` was tested, and the “activation” value was inactive: -12.5%. In the case of `CCCN1C(=O)c2[nH]nc(-c3cccc(OC)c3)c2C1c1ccccn1` (centres undefined), the “activation” value is reported as inactive: 2.87%. `CCN(CCCNC(=O)c1cc2cc3ccc(OC)cc3nc2s1)c1cccc(C)c1` was tested, and the “activation” value was inactive: -11.8%. For `CC(C)Cn1c(=O)c2ccccc2n2c(CCC(=O)NCc3ccc(Cl)cc3)nnc12`, the “activation” value was inactive: -7.33%. For `Cc1cccc(Nc2cc(Cl)nc(SCC(=O)O)n2)c1C`, the “activation” value was inactive: -10.5%. In the case of `Cn1c(=O)oc2cc(S(=O)(=O)NCCC(=O)NCc3ccc(F)cc3)ccc21`, the “activation” value is reported as inactive: -10.6%. For `CCCCn1c(=N)c(C(=O)NC2CCCCC2)cc2c(=O)n3cccc(C)c3nc21`, the “activation” value was inactive: -19.5%. In the case of `O=C(CCC(=O)N1CCSc2ccccc21)NCc1ccccc1Cl`, the “activation” value is reported as inactive: -5.17%. `CCOc1ccc(CCNC(=O)c2cn(-c3cccc(OC)c3)c(=O)c3ccccc23)cc1` was tested, and the “activation” value was inactive: -5.44%. With `Cc1cc(C)cc(NC(=O)c2cnn(-c3ccc(C)c(C)c3)c2C2CCNCC2)c1` the “activation” value was inactive: -21.6%. For `CCC(C)NC(=O)c1ccc2c(c1)N(Cc1ccccc1F)C(=O)c1ccccc1S2=O` (centres undefined), the “activation” value was inactive: -14.8%. For `COc1ccc(NC(=O)Cn2cnc3sc(C)c(S(=O)(=O)N4CCN(c5ccccc5OC)CC4)c3c2=O)cc1OC`, the “activation” value was inactive: -26.6%. `CCC1CN(C(=O)NCc2ccc(C)cc2)c2cc(Cl)ccc2O1` (centres undefined) was tested, and the “activation” value was inactive: 0.265%. In the case of `CCN1CCN(Cc2nc3cc(NC(=O)c4cc(OC)c(OC)c(OC)c4)ccc3n2CC)CC1`, the “activation” value is reported as inactive: -17.7%. In the case of `Cc1ccc(CNC(=O)N2CCC(CN3CCC(C)CC3)CC2)cc1`, the “activation” value is reported as inactive: -2.51%. With `COc1ccc(S(=O)(=O)c2cn(CC(=O)Nc3cc(C)ccc3C)c3ccccc3c2=O)cc1` the “activation” value was inactive: -13.3%. `COc1ccc(S(=O)(=O)n2nc(-c3ccco3)nc2NCc2ccc(N(C)C)cc2)cc1` was tested, and the “activation” value was inactive: -12.9%. For `COc1cc(OC)cc(-c2nc3nc(C)c(CCC(=O)Nc4ccc(C)c(C)c4)c(C)n3n2)c1`, the “activation” value was inactive: 11.6%. In the case of `Cc1ccc(C)c(N2CCN(C(=O)Cn3ncc4c(=O)oc5ccccc5c43)CC2)c1`, the “activation” value is reported as inactive: -4.8%. For `CC(C)c1ccc(NC(=O)CN2C(=O)COc3ccc(S(=O)(=O)N4CCCCC4)cc32)cc1`, the “activation” value was inactive: -0.874%. For `CCc1ccccc1NC(c1nnc(-c2cccc(F)c2)o1)c1ccc(F)cc1Cl` (centres undefined), the “activation” value was inactive: -14.1%. For `Cc1ccc2scc(N3CCc4ccccc4C3)c(=O)c2c1`, the “activation” value was inactive: -18.2%. `Cc1ccc(NS(=O)(=O)c2ccc3c(c2)n(C)c(=O)n3C)cc1C` was tested, and the “activation” value was inactive: -10.4%. `Cc1cc2nc(-c3ccc(OCc4ccccc4Cl)cc3)cc(C(F)(F)F)n2n1` was tested, and the “activation” value was inactive: -14.5%. `COc1ccccc1NC(=O)Cn1c(SCC(=O)N(C)c2ccccc2)nc2ccccc21` was tested, and the “activation” value was inactive: -11.8%. In the case of `O=C1N(Cc2ccccc2)c2ccc(Cl)cc2C1(O)c1c[nH]c2ccccc12` (centres undefined), the “activation” value is reported as inactive: -3.02%.
